# Results as given in PubChem BioAssay AID1346428 (National Center for Advancing Translational Sciences (NCATS), 2018).
# “And” between values parts separate entries of the source, which are not always exact repeats. Equal values may be shown once. About 1,200 (2.5%) of roughly 48,000 compounds were called active. Not shown: some 2% with an inconclusive outcome.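 How the source made its calls: active means activation of at least 60% and not above a set upper limit (about 1 call in 100 departs from these limits); inconclusive means activation of 40% to 60%, or above that upper limit; inactive means activation under 40%.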 The list shows a part of the results.
# Molecular target: Probable G-protein coupled receptor 32 (Homo sapiens) (UniProt O75388)
# Chain of UniProt O75388 (O75388 whole entry, looked up): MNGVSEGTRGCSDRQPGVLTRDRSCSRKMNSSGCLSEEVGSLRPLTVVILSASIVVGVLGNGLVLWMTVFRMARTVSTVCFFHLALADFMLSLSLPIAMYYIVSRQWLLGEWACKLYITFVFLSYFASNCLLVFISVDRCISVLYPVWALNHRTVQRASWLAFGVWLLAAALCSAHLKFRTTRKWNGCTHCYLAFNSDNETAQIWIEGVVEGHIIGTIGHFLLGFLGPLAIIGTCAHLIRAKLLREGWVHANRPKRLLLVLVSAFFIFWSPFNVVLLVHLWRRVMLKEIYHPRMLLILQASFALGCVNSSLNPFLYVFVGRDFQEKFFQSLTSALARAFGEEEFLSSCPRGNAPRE
# Assay: qHTS for Agonists of Human Resolvin D1 Receptor DRV1; further: 0% is about no effect
# Conditions: CHO-K1 GPR32 beta-arrestin PathHunter luminescence, 90 min; at 76.9 µM; active compounds read high; zero percent set by DMSO-only wells
# Method in brief: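 Using DMSO wells as EC0, agonist-induced signal was taken as chemiluminescence from beta-Gal reconstituted upon beta-arrestin recruitment to GPR32 in CHO-K1 cells after 90 min compound treatment.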
row,SMILES,activation
1,CCOC(=O)Cn1c(=O)oc2cc(S(=O)(=O)NCc3ccc(F)cc3)ccc21,inactive: -9.55%
2,COC(=O)c1sccc1S(=O)(=O)N1CCN(c2cccc(C)c2C)CC1,inactive: -1.02%
3,O=C(CSc1n[nH]c(-c2ccccc2)n1)N1CCCCC1,inactive: 7.63%
4,Cc1ccc(Cl)cc1N1CCN(C(c2ccc(F)cc2)c2nnc(-c3ccccc3)o2)CC1 (centres undefined),inactive: -20%
5,CCN(CC)CCc1nc(-c2ccccc2)no1,inactive: 8.27%
6,Cc1noc(/C=C/N(C)C)c1S(=O)(=O)N1CCCC(C(=O)Nc2cccc(F)c2)C1 (centres undefined),inactive: -14.1%
7,CCOc1ccc(CC(=O)NCCc2csc3nc(-c4ccccc4F)nn23)cc1,inactive: 34.6%
8,CCCCN(C)CCNC(=O)Cn1ncc2c3ccccc3n(CCC)c2c1=O,inactive: -4.98%
9,CCN(CC)c1ccc2cc(-c3nnc(-c4cccc(Cl)c4)o3)c(=O)oc2c1,inactive: 18.9%
10,Cc1csc2nc(-c3cccc(NC(=O)c4cccc(F)c4)c3)cn12,inactive: -2.22%
11,O=C(CS(=O)Cc1ccco1)NC/C=C\COc1cc(CN2CCCCC2)ccn1 (centres undefined),inactive: -16.6%
12,Cc1cccc(-c2noc(CN(C(=O)c3ccc(C)c(C)c3)C(C)C)n2)c1,inactive: 14.6%
13,Cc1ccc(NC(=O)c2ncn(-c3ccccc3)n2)c(Cl)c1,inactive: -5.82%
14,COc1ccc(C)cc1N(C)C(=O)c1sc2nc3n(c(=O)c2c1C)CCCCC3,inactive: -5.36%
15,CCOc1ccc(CCNC(=O)C2=C(C)C(=O)OC23CCC(C)CC3)cc1OCC (centres undefined),inactive: -22.6%
16,CCCCCn1c(=O)[nH]c2cc(C(=O)NCc3ccc(C)cc3)ccc2c1=O,inactive: -0.0575%
17,Cc1ccc(C(=O)c2oc3ccccc3c2NC(=O)c2nc(S(C)(=O)=O)ncc2Cl)cc1F,active: 74.6%
18,COc1cccc(NC(=O)CSc2nc(-c3ccccc3)nc3c2Cc2cc(Cl)ccc2O3)c1,inactive: -14.2%
19,Nc1ncnc2c1c(-c1ccc(Oc3ccccc3)cc1)cn2C1CCCC1,inactive: -6.18%
20,O=S(=O)(c1ccccc1)c1nc(-c2ccc(F)cc2)oc1N1CCOCC1,inactive: -37.2%
21,CCOc1cc(C#N)c(NC(=O)c2ccc(OC)c(S(=O)(=O)N3CCCC3)c2)cc1OCC,inactive: -7.2%

row,SMILES,activation
1,CCOC(=O)c1cccc(NC(=O)CC(c2ccc(F)cc2)N2Cc3ccccc3C2=O)c1 (centres undefined),inactive: -4.23%
2,COc1ccccc1NC(=O)N(Cc1ccco1)C1CCN(C(C)=O)CC1,inactive: -25.3%
3,CCCOc1ccc(OC(=O)c2sc3ncn(Cc4cccc(F)c4)c(=O)c3c2C)cc1,inactive: -1.45%
4,C=CC1(C)CC(=O)C2(O)C(C)(O1)C(OC(C)=O)C(O)C1C(C)(C)CCC(O)C12C (centres undefined),inactive: 45.7%
5,O=C(c1nc(-c2ccc(Cl)cc2)n2c1CCCCC2)N1CCN(c2ccc(F)cc2)CC1,inactive: 2.95%
6,CCOC(=O)c1c(NC(=O)c2cc(-c3ccccc3)on2)sc2c1CCCC2,inactive: -0.671%
7,CC(C)Cn1c(=O)c2sccc2n2c(CCCC(=O)Nc3ccc(Cl)cc3)nnc12,inactive: -12.7%
8,CS(=O)(=O)c1ncc(N(Cc2ccccc2)Cc2ccco2)c(C(=O)Nc2cccc(C(F)(F)F)c2)n1,inactive: -16.3%
9,Cc1cc(C)c(NC(=O)CSc2nc(=O)n(Cc3ccco3)c3c2CCC3)c(C)c1,inactive: -2.57%
10,O=C(NCCc1ccc(Cl)cc1)c1ccc2nc(Cc3ccccc3)oc2c1,inactive: -10.8%
11,Cc1cc2c(cc1S(=O)(=O)Nc1cccc(C(F)(F)F)c1)OCCN2C,inactive: -15.5%
12,CCOc1ccc(-c2nonc2NC(=O)c2ccccc2C)cc1,inactive: 29.1%
13,COc1ccc2c(Sc3ccccc3)c(C(=O)NCCN(C)C)[nH]c2c1,inactive: -16.6%
14,CCc1ccc(CN(Cc2ccco2)C(=O)c2cc(-c3ccc(Cl)cc3)on2)cc1,inactive: 0.479%
15,CC(C)(C)C1CCc2c(sc(NC(=O)c3ccccc3F)c2C(=O)N2CCCCC2)C1 (centres undefined),inactive: -35.6%
16,CCN(CC)C(=O)c1sc2c(c1C)c(=O)n(-c1ccc(C)c(C)c1)c(=O)n2CC(=O)Nc1ccc(F)cc1,inactive: -12.4%
17,O=C(Cc1ccc(Cl)cc1)Nc1ccc2oc(-c3ccccc3)nc2c1,inactive: 12.9%
18,CC(C)Oc1ccc(CNC(=O)Cc2ccc(NC(=O)N3CCSc4ncccc43)cc2)cc1,inactive: 5.7%
19,Cc1ccc2c(c1)c(=O)c(S(=O)(=O)c1ccc(F)cc1)cn2CC(=O)Nc1ccc2c(c1)OCO2,inactive: -9.56%
20,Cc1ccc(Cl)cc1NC(=O)NC1COc2ccccc2C1 (centres undefined),inactive: 4.39%
21,CCC(Cn1nnc2ccccc2c1=O)NC(=O)Nc1cc(Cl)ccc1OC (centres undefined),inactive: -22.9%

row,SMILES,activation
1,Cc1cccc(C2N3CC4(C(C)C)CN2CC(C(C)C)(C3)C4=O)c1 (centres undefined),inactive: 23%
2,Cc1ccc(-n2ncc(C(=O)NCc3cccs3)c2C2CCN(C(=O)OC(C)(C)C)CC2)cc1C,inactive: -28.9%
3,CN1CCC[C@@H]1c1cccnc1,inactive: -0.0583%
4,CC(C)CN(CCNC(=O)c1cc(=O)[nH]c2ccc(S(=O)(=O)N3CCCCCC3)cc12)CC(C)C,inactive: -26%
5,Cn1c(=O)oc2cc(S(=O)(=O)NCCC(=O)Nc3ccc(F)c(Cl)c3)ccc21,inactive: 3.19%
6,Cc1ccc(C)c(OCCOCCn2c(-c3ccc(Br)cc3)nc3ccccc3c2=O)c1C,inactive: 9.11%
7,Cc1cccc(Cn2c(CNS(=O)(=O)c3ccc(Cl)s3)nc3cccnc32)c1,inactive: -36.2%
8,Cc1ccc2[nH]c(CSc3nnc(NC(=O)COc4ccccc4F)s3)cc(=O)c2c1,inactive: 34.9%
9,CCOc1ccc(-c2cc3c(=O)n(CC(=O)Nc4c(C)cccc4C)ccn3n2)cc1,inactive: -3.83%
10,Fc1ccc(-c2csc(-c3nc(-c4ccc(Br)s4)cs3)n2)cc1,inactive: 1.25%
11,Cc1ccc(Cl)cc1NC(=O)/C(C#N)=C/c1c(C)n(Cc2ccccc2)c2ccccc12,inactive: -2.71%
12,CC1CCCCN1C(=O)CSc1nnc(-c2cccc(Cl)c2)o1 (centres undefined),inactive: 11.8%
13,CCOc1ccc(NC(=O)CCCN2C(=O)C(c3ccccc3)Oc3cccnc32)cc1 (centres undefined),inactive: -7.34%
14,COc1cccc(NC(=O)C(=O)NCC(c2cccnc2)N2CCN(c3ccccc3)CC2)c1 (centres undefined),inactive: 19.7%
15,Cc1ccccc1-n1nc(CO)c(C(=O)NCCc2ccccc2)n1,inactive: -11.7%
16,CC1CCc2c(sc(NC(=O)c3ccccc3)c2C(=O)Nc2ccccc2)C1 (centres undefined),inactive: 31%
17,Cc1cccc(CSc2cn(CC(=O)N3CCCCCC3)c3ccccc23)c1,inactive: -12.8%
18,COc1ccc(OC)c(CNc2ncnc3onc(-c4ccc(Cl)cc4)c23)c1,inactive: 0.605%
19,CCOC(=O)CSc1nc2ccc(NC(=O)COc3ccccc3)cc2s1,active: 61.1%
20,CCCCN(C)CCNC(=O)C1CCN(c2nc3ccc(CC)cc3s2)CC1,inactive: -14.1%
21,O=C(NCc1ccc(Cl)cc1)c1cnc2sc(N3CCCCCC3)nn2c1=O,inactive: -3.86%

row,SMILES,activation
1,CCCOc1ccc(-c2cccc(NS(=O)(=O)c3cc(OC)ccc3OC)c2)nn1,inactive: -0.795%
2,O=C(CCC(=O)N1Cc2ccccc2Oc2ncccc21)NCc1ccccc1Cl,inactive: -4.84%
3,COc1ccc(Cl)cc1NC(=O)C1CCN(c2ncnc3c2nc2n3CCCCC2)CC1,inactive: -2.22%
4,CCN(CC)c1ccc(NC(=O)c2cnn3c(C(F)F)cc(-c4ccccc4)nc23)cc1,inactive: -27.1%
5,COc1ccc(C(c2c(O)cc(C)n(Cc3ccco3)c2=O)N2CCN(c3ccccc3)CC2)cc1 (centres undefined),inactive: -11.3%
6,CCC(=O)N1CCc2cc(S(=O)(=O)CCC(=O)N3CCN(c4ccccc4F)CC3)ccc21,inactive: -4.4%
7,Cc1ccc(CNC(=O)c2cc3sccc3n2Cc2ccc(F)cc2)cc1,inactive: -2.77%
8,CN1CCN(C(CNC(=O)C(=O)Nc2ccc(F)cc2)c2cccnc2)CC1 (centres undefined),inactive: 0.807%
9,Cc1cc2oc(C(=O)Nc3nc(-c4ccccc4)ns3)c(C)c2cc1Cl,inactive: -9.07%
10,CCOc1ccc(CNC(=O)c2sc3nc(C)cc(C)c3c2-n2cccc2)cc1,inactive: 8.49%
11,Cc1ccc(NC(=O)CN2C(=O)CCc3cc(S(=O)(=O)N4CCOCC4)ccc32)c(C)c1,inactive: 0.249%
12,CN1CCN(CCCN2c3ccccc3Sc3ccc(Cl)cc32)CC1,inactive: 26.2% and inactive: 2.46%
13,Cc1ccc(C)c(Cn2nnc(C(=O)NCc3ccccc3)c2N)c1,inactive: 9.77%
14,CCC(CC)C(=O)N1CCc2cc(OC)c(OC)cc2C1COc1ccccc1OC (centres undefined),inactive: 8.37%
15,CC(=O)c1ccc(NS(=O)(=O)c2ccc3[nH]c4c(c3c2)CCCCCC4)cc1,active: 72.7%
16,Cc1nc2cc(-c3cccc(F)c3)nn2c(C)c1CCC(=O)NC1CCCCC1,inactive: 4.49%
17,CCOc1ccc(NC(=O)CSc2nnc(NC(=O)Nc3ccccc3)s2)cc1,inactive: 5.06%
18,CCOc1ccc(-c2nonc2NC(=O)COc2ccc(C)c(C)c2)cc1OCC,inactive: 12.8%
19,O=C(c1ccc2c(c1)N(Cc1cccc(Cl)c1)C(=O)c1ccccc1S2(=O)=O)N1CCN(c2cccc(C(F)(F)F)c2)CC1,inactive: -21%
20,COc1ccc(-c2nn(C)c3sc(C(=O)N4CCN(c5cc(Cl)ccc5C)CC4)cc23)cc1OC,inactive: 14.3%
21,COc1ccc(C(=O)CCC(=O)Nc2cccc(C(C)=O)c2)cc1,inactive: 5.81%
